About 220 (0.56%) of roughly 39,000 compounds showed activity. The list shows a part of the results.
test system: Escherichia coli K-12 BW25113; assay: relative growth (OD600 normalised to plate interquartile mean) (fraction); higher = less growth inhibition, active = 0.2 or less; conditions: 50 µM; LB; incubation time: overnight (16-24 h)
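Also: static incubation at 37 °C against the wild-type strain, values averaged over two biological replicates.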

| Structure (SMILES) | relative growth |
| --- | --- |
| C[C@@H]1CN([C@@H](C)CO)C(=O)Cc2cc(NC(=O)Nc3ccc4c(c3)OCO4)ccc2O[C@@H]1CN(C)Cc1ccc(C(=O)Nc2ccccc2N)cc1 | inactive: 0.978 |
| CO[C@@H]1CN(C)C(=O)c2cc(NC(=O)Nc3ccccc3F)ccc2OC[C@H](C)N(Cc2ccccc2C(=O)O)C[C@H]1C | inactive: 0.979 |
| C=CC[C@@H](CC(=O)N(CCO)Cc1ccccc1)C(=O)N[C@H](COC(=O)[C@H](CC=C)CC(=O)OC(C)(C)C)Cc1c[nH]c2ccccc12 | inactive: 1.09 |
| CC(=O)N(C)C[C@@H]1Oc2ncc(C#C[C@@H](C)O)cc2C(=O)N([C@H](C)CO)C[C@@H]1C | inactive: 0.89 |
| NCC[C@@H]1CC[C@@H](NC(=O)NC2CCCCC2)[C@H](CO)O1 | inactive: 1.03 |
| Cc1ccc2[nH]c3c(c2c1)CCC[C@H]3Nc1ccc(Cl)cc1 | inactive: 1 |
| C[C@@H]1CN([C@@H](C)CO)C(=O)c2ccccc2-c2ccccc2CO[C@H]1CN(C)S(=O)(=O)c1cn(C)cn1 | inactive: 0.984 |
| CCCC(=O)Nc1ccc2c(c1)OC[C@@H](C)N(S(=O)(=O)c1cn(C)cn1)C[C@@H](C)[C@H](OC)CN(C)C2=O | inactive: 0.998 |
| O=C(C[C@H]1CC[C@H]2[C@@H](COC[C@@H](O)CN2S(=O)(=O)c2ccc(F)cc2)O1)N1CCc2ccccc2C1 | inactive: 0.964 |
| Cc1noc(C)c1NC(=O)N(C)C[C@@H]1Oc2c(NC(=O)c3cnccn3)cccc2C(=O)N([C@@H](C)CO)C[C@H]1C | inactive: 0.999 |
| C[C@@H]1CN([C@@H](C)CO)C(=O)c2cc(C#CC3(O)CCCC3)cnc2O[C@@H]1CN(C)C(=O)C1CCCCC1 | inactive: 0.995 |
| C[C@H](CO)N1C[C@H](C)[C@@H](CN(C)Cc2ccc(C(F)(F)F)cc2)Oc2c(NC(=O)c3ccc(-c4nccs4)cc3)cccc2C1=O | inactive: 1.01 |
| C[C@@H]1CN([C@H](C)CO)C(=O)c2cc(NS(=O)(=O)c3cccs3)ccc2O[C@H]1CN(C)Cc1ccc(Oc2ccccc2)cc1 | inactive: 1.02 |
| C[C@H]1CN([C@@H](C)CO)C(=O)c2cc(NS(=O)(=O)c3ccccc3)ccc2O[C@H]1CN(C)Cc1ccc(Oc2ccccc2)cc1 | inactive: 1 |
| COCCNC(=O)C[C@H]1CC[C@@H]2[C@H](COc3ccc(NC(=O)Nc4cccc(F)c4)cc3C(=O)N2C)O1 | inactive: 0.974 |
| CCN1C(=O)S/C(=C\C(=O)O)C1=O | inactive: 0.98 |
| C[C@@H]1CCCCO[C@H](CN(C)Cc2ccncc2)[C@H](C)CN([C@@H](C)CO)C(=O)c2cc(NS(=O)(=O)c3ccc(Cl)cc3)ccc2O1 | inactive: 1.02 |
| COc1ccc(CN(C)C[C@H]2Oc3ccc(NC(=O)CCCCCC(=O)Nc4ccccc4N)cc3CC(=O)N([C@@H](C)CO)C[C@@H]2C)cc1 | inactive: 1.01 |
| C[C@H]1CN([C@@H](C)CO)C(=O)Cc2cc(NS(=O)(=O)c3cccs3)ccc2O[C@@H]1CN(C)S(=O)(=O)c1ccc(F)cc1 | inactive: 1.01 |
| C[C@@H]1CN([C@H](C)CO)C(=O)c2cc(NS(=O)(=O)c3cn(C)cn3)ccc2O[C@H]1CN(C)S(=O)(=O)c1ccc(F)cc1 | inactive: 1.01 |

| Structure (SMILES) | relative growth |
| --- | --- |
| COc1ccc(NC(=O)N(C)C[C@H]2OCCCC[C@@H](C)Oc3ccc(NS(=O)(=O)c4ccc(C)cc4)cc3C(=O)N([C@H](C)CO)C[C@@H]2C)cc1 | inactive: 0.944 |
| COc1ccc(CN(C)C[C@H]2Oc3c(NS(C)(=O)=O)cccc3C(=O)N([C@H](C)CO)C[C@H]2C)cc1 | inactive: 1.01 |
| C[C@@H]1CCCCO[C@H](CN(C)C)[C@H](C)CN([C@@H](C)CO)C(=O)c2cc(NC(=O)CCCN(C)C)ccc2O1 | inactive: 0.975 |
| CCn1c(N)nc2c1c(=O)[nH]c(=O)n2C | inactive: 0.99 |
| C[C@H](CO)N1C[C@H](C)[C@@H](CN(C)S(=O)(=O)c2ccc(Cl)cc2)OCCCC[C@H](C)Oc2ccc(NC(=O)CCC(F)(F)F)cc2C1=O | inactive: 1 |
| CC(C)NC(=O)Nc1ccc2c(c1)C(=O)N([C@H](C)CO)C[C@@H](C)[C@H](CN(C)Cc1ccccc1)OCCCC[C@H](C)O2 | inactive: 0.992 |
| C[C@H](CO)N1C[C@H](C)[C@H](CN(C)CC2CCCCC2)OCCCC[C@H](C)Oc2ccc(NC(=O)Nc3ccccc3)cc2C1=O | inactive: 0.986 |
| NC(=O)N/N=C/c1ccc([N+](=O)[O-])o1 | active: 0.0425 |
| COc1ccc(NC(=O)N(C)C[C@H]2OCc3cnnn3CCCC(=O)N([C@@H](C)CO)C[C@@H]2C)c(OC)c1 | inactive: 1 |
| COCCNC(=O)C[C@@H]1CC[C@H]2[C@@H](COC[C@@H](O)CN2C(=O)Nc2ccccc2OC)O1 | inactive: 0.919 |
| C[C@H]1CN([C@@H](C)CO)C(=O)c2cccc(NC(=O)c3ccncc3)c2O[C@H]1CN(C)S(=O)(=O)c1ccccc1 | inactive: 1.02 |
| O=C(C[C@H]1C[C@@H]2c3cc(NC(=O)c4ccc5c(c4)OCO5)ccc3O[C@@H]2[C@@H](CO)O1)NCCc1ccccc1 | inactive: 1.01 |
| C[C@@H]1CCCCO[C@H](CN(C)C(=O)Cc2ccccc2)[C@@H](C)CN([C@@H](C)CO)C(=O)c2cc(NC(=O)Nc3ccc(F)cc3)ccc2O1 | inactive: 1.03 |
| C[C@@H]1CN([C@@H](C)CO)C(=O)c2cc(NS(=O)(=O)c3ccc(F)cc3)ccc2O[C@@H]1CN(C)S(=O)(=O)c1cccs1 | inactive: 1 |
| Cc1noc(C)c1NC(=O)Nc1ccc2c(c1)C(=O)N([C@@H](C)CO)C[C@@H](C)[C@H](CN(C)C(=O)C1CCCCC1)OCCCC[C@H](C)O2 | inactive: 1.01 |
| Clc1nc(-c2ccccn2)nc2scc(-c3ccccc3)c12 | inactive: 0.979 |
| CC(=O)C1C(=O)C=C(C)OC1=O (stereo not given) | inactive: 0.841 |
| CCOC(=O)CNC(=O)c1cnn2cccnc12 | inactive: 1.02 |
| O=C(C[C@H]1C=C[C@@H](NC(=O)c2cccnc2)[C@H](CO)O1)NCCN1CCCCC1 | inactive: 1.01 |
| C[C@@H]1CN([C@@H](C)CO)C(=O)c2cc(NC(=O)Cc3ccccc3)ccc2O[C@H]1CN(C)C(=O)Nc1ccc(C(F)(F)F)cc1 | inactive: 0.995 |

Reference: the supplement of paper PMC9446081
